Experimental data from ChEMBL document CHEMBL4888484, “Replenishing the malaria drug discovery pipeline: Screening and hit evaluation of the MMV Hit Generation Library 1 (HGL1) against asexual blood stage Plasmodium falciparum ,using a nano luciferase reporter read-out” (2022).
Among all 150,000 compounds or so, about 540 (0.36%) showed an effect of 50% or more. Some of the results follow. *1 amine or outer side, *2 acyl side, *3 side chain or, on linkers, in order; H or OH if unused. Where a SMILES comes first, the peptide text is derived from it. Bridges are numbered along the chain shown (N, C = ends). [ ]: non-standard residue; d: D form. The star is where a group is joined. N(2-Aminoethyl)Gly = O=C(CN(CCN[*:3])[*:1])[*:2]; Benzoyl(3-CF3) = O=C(c1cccc(C(F)(F)F)c1)*; NMeA = CN[C@@H](C)C(=O)O

Tested on: Plasmodium falciparum
Assay: Primary screen in NF54 nanoGlo assay, in single point, at 2uM, 72h; a lower Z score goes with more inhibition
Assay type: functional, Erythrocyte
Conditions: timepoint 72 hour

Row | SMILES | % Inhibition | Z score
1 | Cc1ncc(C(=O)N2CCN(C)[C@]3(CCC(=O)N(CC4CC4)CC3)C2)c(C)n1 | -1% | 0.14
2 | CCc1nc(CN(C)Cc2ncnn2C)no1 | 0% | 0.02
3 | CC(C)Cn1nccc1NCC1=CCCOC1 | -10% | 1.73
4 | Cc1nnc(CN2CCC[C@@](O)(CNC(=O)N3CCCCC3)CC2)s1 | 1% | -0.14
5 | COCCn1c(=O)n([C@H]2CCCN(C(=O)Cc3c(C)noc3C)C2)c2ncccc21 | -14% | 1.87
6 | CCC(CC)c1nnc(NC(=O)c2ccc(NC(=O)c3ccccc3)cc2)s1 | 3% | -0.41
7 | COc1cncc(O[C@H]2CCCN(C(=O)Cn3cccn3)C2)n1 | -5% | 0.89
8 | COCC[C@H](NC(=O)NC1(C)CCC1)C(C)C | -9% | 0.92
9 | CC[C@@H](c1ccccc1)N(C)Cc1ccc(-c2nc3c(c(=O)[nH]2)CNCC3)cc1 | -5% | 0.85
10 | O=S(=O)(N1CCCCCC1)N1CCN(Cc2cc3c(cc2Br)OCCO3)CC1 | 7% | -0.84
11 | CCNc1ccnc(N2CCc3nnc(Cc4cccnc4)n3CC2)n1 | 2% | -0.23
12 | CC(C)OCCOC[C@@H](O)CN(C)Cc1cccc(Cl)c1 | -2% | 0.32
13 | Cc1csc(CN(Cc2ccccc2)CC(C)(C)O)n1 | -3% | 0.36
14 | N#C[C@@H](C(=O)C1CCC(NC(=O)C2CCCC2)CC1)c1ccccn1 (stereo partly specified) | -13% | 1.84
15 | Cc1c(C(=O)Nc2ccccc2)[n+]([O-])cn1-c1cc(C(=O)O)ccc1OC(C)C | -12% | 1.85
16 | Cc1nc(O)nc(C)c1CCC(=O)NCc1nc2c(C)cccc2[nH]1 | -6% | 0.79
17 | CCCc1cc(N2CCN(C(=O)c3ccc(F)cc3)CC2)nc2nnc(C)n12 | 2% | -0.23
18 | COc1cccc(CN2CCCN(c3cccc(NC(=O)CC(C)(C)C)c3)C2=O)c1 | 6% | -0.86
19 | CC1CCC(C)(NC(=O)C2=NN(C)C(=O)CC2)CC1 (stereo unspecified) | -15% | 2.39
20 | CS(=O)(=O)C1(C(=O)N2CC(C3CC3)C2C2CC2)CCC1 (stereo unspecified) | -3% | 0.39
21 | CN(C)C(=O)c1cccc(-c2cccc3cnccc23)c1 | -9% | 1.25

Row | SMILES | % Inhibition | Z score
22 | CC[C@H](O)CN(CCO)Cc1cc(Br)ccc1F | -11% | 1.78
23 | CC(C)C(=O)NCCNC(=O)NCC1CC1 | 2% | -0.34
24 | Cc1ccc(CN(CCN2CCOCC2)Cc2ccc(C(O)(c3cccc(F)c3)c3cccc(F)c3)o2)cc1 | -12% | 1.51
25 | CC(C)C[C@@H]1NC(=O)CN(C(=O)c2cccc(C(F)(F)F)c2)CCNC(=O)[C@H](Cc2ccccc2)NC(=O)[C@H](C)N(C)C1=O ({Benzoyl(3-CF3)}-[N(2-Aminoethyl)Gly]L[NMeA]F; lactam 1-C) | -10% | 1.25
26 | O=C(Nc1cccc(OCC(F)F)n1)c1ccc2ncoc2c1 | 6% | -1.08
27 | O=c1[nH]c2ccccc2c(=O)n1C[C@H]1CC[C@H](C(=O)NC[C@H]2CC[C@H](C(=O)O)CC2)CC1 | -12% | 1.77
28 | O=C(O)CCNC(=O)N1CCC[C@]2(CCCN(Cc3ccccc3)C2)C1 | -1% | 0.13
29 | CCNc1ncc(C(=O)NC[C@H](O)CN2CCOCC2)cc1Cl | 2% | -0.24
30 | COc1ccc(S(=O)(=O)N2CCOCC2)cc1C(=O)Nc1ccc2c(c1)OCCCO2 | -9% | 1.11
31 | CCn1cc(-c2ccccc2)cc1C(=O)O | -19% | 1.7
32 | COc1nnc(N2C(=O)CN([C@@H](C)c3ccccc3)C2=O)s1 | -14% | 1.42
33 | Cc1cc(C)c(NS2=NC(C(Cl)(Cl)Cl)=NC(C(Cl)(Cl)Cl)=N2)c(C)c1 (stereo unspecified) | 2% | -0.37
34 | Cc1nccn1CCCCNC(=O)c1ccc2c(c1)OCCO2 | -2% | 0.3
35 | O=C(c1ccon1)N1CC[C@H]2[C@H](CCC(=O)N2CCCn2ccnc2)C1 | -9% | 1.78
36 | Cc1cc(N2CCC[C@H]2c2c(C)nn(C)c2Cl)n2ncnc2n1 | 14% | -2.26
37 | CCN(CC)/C(=N\Nc1cccc(Cl)c1)C(C)=O | -18% | 2.11
38 | O=C(C[C@H]1CCOC1)Nc1ccc(CNc2ccccc2)cc1 | 4% | -0.76
39 | Cn1ccc([C@H]2CCCN(S(=O)(=O)c3ccc(F)c(-c4nnn[nH]4)c3)C2)n1 | 16% | -1.85
40 | CN(Cc1nccs1)[C@@H](c1ccc(Cl)cc1)c1ncccn1 | -12% | 1.13
41 | O[C@H]1CN(Cc2cnc(NCc3ccccc3)nc2)C[C@@H]1F | -10% | 1.9
42 | COc1ccc(NC(=O)c2csc(NC3CC3)n2)c(OC)c1 | -5% | 0.65

Row | SMILES | % Inhibition | Z score
43 | COc1ccc(-c2nccn3cc(C(=O)N4CCN(C5CCCCC5)CC4)nc23)cc1 | 8% | -1.35
44 | CCn1ccc(C(=O)N2CCCn3nc(-c4nc5ccccc5[nH]4)cc3C2)n1 | -11% | 2.04
45 | O=C(Nc1cccn2c(C3CCC3)nnc12)c1cnccn1 | -8% | 1.58
46 | C[C@@H]1OCCO[C@@H]1C(=O)Nc1nc(-c2ccccc2Cl)nn1C | -6% | 1.01
47 | Cc1ccccc1CC(=O)N1C[C@H](C(=O)O)[C@@H](c2ccc3c(c2)OCO3)C1 | -16% | 1.76
48 | CC(C)CCn1c(=O)c2c(ncn2Cc2ccccc2)n(-c2ccccc2Cl)c1=O | -8% | 0.71
49 | COc1ccc(-n2c(C)cc(C(=O)N3CC[C@H](C(=O)O)C3)c2C)cc1 | -1% | 0.2
50 | CCOc1ccc2ccccc2c1[C@@H]1N=C(O)c2ccccc2N1 | 10% | -1.18
51 | Cc1cc(CN(C)c2nc(C)ncc2C)ccn1 | -7% | 1.36
52 | O=C(NCC1CCN(c2cccnc2)CC1)c1cncc(Br)c1 | 18% | -2.25
53 | Cc1cc(CNC(=O)N[C@H](C(N)=O)C(C)C)cnc1C | -17% | 1.52
54 | COc1ccccc1-c1nc(NC[C@H]2CCCO2)nc2nn(Cc3ccccc3)c(N)c12 | 4% | -0.49
55 | CS(=O)(=O)N1C[C@H]2CC[C@@H](C1)N(C(=O)COCc1ccccc1)C2 | -3% | 0.49
56 | Cc1nsc(NC(=O)N2CCC(C(=O)N3CCCC3)CC2)n1 | 4% | -0.78
57 | COC1(CC(=O)NCCc2c[nH]c3ccccc23)CCC1 | -9% | 1.13
58 | Cc1cc(C(=O)N(C)CC2(C)CCOCC2)nn1C | 0% | 0.04
59 | Cc1cccc(NC(=O)c2cc(S(=O)(=O)N3CCCCC3)ccc2Cl)n1 | -10% | 2.03
60 | Cc1ccc(NC(=O)Cn2cnc3c(c2=O)CCCC3)c(Br)c1 | -15% | 1.87
61 | CC1(C)CN(C(=O)Cc2cccnc2)C[C@]1(O)C1CC1 | -3% | 0.39
62 | CC(=C(F)C(=O)N1CCCC[C@@H]1CO)C1CC1 | -9% | 1.41
63 | COC(=O)N1CCC(NC2c3ccccc3CC2C)CC1 (stereo unspecified) | -13% | 1.06

Row | SMILES | % Inhibition | Z score
64 | CC(NCc1nnc(-c2ccco2)o1)C(C)n1cccn1 (stereo unspecified) | -1% | 0.21
65 | Cc1noc2ncnc(Nc3ccc4c(c3)NC(=O)[C@H](C)O4)c12 | -8% | 0.86
66 | Cc1cc(C(=O)NCCc2cncnc2)no1 | -3% | 0.32
67 | Cc1cc(C(=O)NCc2cc(-c3ccco3)n(C)n2)no1 | 4% | -0.46
68 | N#CCN[C@H](c1ccccc1OC(F)F)C(F)(F)F | -21% | 3.12
69 | Cc1ccc2c(c1)N(S(C)(=O)=O)CC[C@@H](C(=O)N1CCCCC1)O2 | 11% | -1.86
70 | C[C@@H](CCCO)NC(=O)NCCc1ccc(F)cc1Cl | -17% | 1.47
71 | O=C(NCc1n[nH]c(=O)[nH]1)C(=O)Nc1ccc(Br)cc1Cl | -2% | 0.31
72 | O=C(NC1CC2CCC1O2)N1CC2C3CCC(O3)C2C1 (stereo unspecified) | 11% | -1.59
73 | FC1=CCCN(c2cnc3ccccc3n2)C1 | 9% | -1.07
74 | CC(C)Cc1nc(CN(C)C(=O)NC[C@H]2CCN(C(C)(C)C)C2)no1 | -15% | 1.36
75 | COc1cc([C@H]2CC(=O)Nc3c2cnn3C(C)(C)C)cc2c1OCCO2 | -1% | 0.07
76 | C[C@H](NC(=O)Cc1c(F)cccc1F)c1nc(C(F)(F)F)no1 | -3% | 0.48
77 | Cc1ccc(-c2nc3ccccc3c(=O)[nH]2)o1 | -10% | 1.81
78 | C[C@H]1CS(=O)(=O)N(c2ccc(C(=O)N3CCCC3)cc2)C1=O | -16% | 2.03
79 | CCc1ccc(CNCC2(N(C)C)CCCC2)cc1 | -18% | 2.58
80 | Cc1ccc(C2=NOC3(CCN(C(=O)c4cc(F)ccc4F)CC3)N2)cc1 | -9% | 1.15
81 | CC(C)c1nc2ccc(C(=O)NCc3ccc(F)cc3)cc2o1 | -20% | 1.82
82 | C[C@@H](Cc1ccc(Br)cc1F)NC(=O)c1c[nH]nn1 | -1% | 0.16
83 | CN1C(=O)C(C)(C)c2cc(S(=O)(=O)N3CCC(C(=O)N[C@H]4CCCc5ccccc54)CC3)ccc21 | -9% | 0.85
